# In PubChem BioAssay AID1030 (National Center for Advancing Translational Sciences (NCATS), 2008):
# Among all 220,000 compounds or so, about 16,000 (7.3%) were called active. This list was built around the results that the source calls inconclusive (neither active nor inactive); the mix of calls is not that of the screen. Calls come from the whole dose curve; as a rule, active = well fitted inhibition curve with a large enough effect (not every such curve was filed as active); inconclusive = small, poorly fitted or top-dose-only effect, or another doubt; inactive = no such curve, though single readings can be large or run the other way. No potency is given beside an inconclusive call; the fits are too rough.
# Target: Aldehyde dehydrogenase 1A1 (Homo sapiens) (UniProt P00352)
# Assay: qHTS Assay for Inhibitors of Aldehyde Dehydrogenase 1 (ALDH1A1);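 for activity, negative = inhibition: plate controls were no enzyme wells and a reference inhibitor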
# Settings: Purified ALDH1A1, NADH fluorescence, propionaldehyde substrate; series mostly up to 75.3 µM
# Potency is the fitted concentration of half-maximal effect; tags give direction and shape of the fitted curve.
# Sequence of UniProt P00352 (P00352 whole entry, looked up): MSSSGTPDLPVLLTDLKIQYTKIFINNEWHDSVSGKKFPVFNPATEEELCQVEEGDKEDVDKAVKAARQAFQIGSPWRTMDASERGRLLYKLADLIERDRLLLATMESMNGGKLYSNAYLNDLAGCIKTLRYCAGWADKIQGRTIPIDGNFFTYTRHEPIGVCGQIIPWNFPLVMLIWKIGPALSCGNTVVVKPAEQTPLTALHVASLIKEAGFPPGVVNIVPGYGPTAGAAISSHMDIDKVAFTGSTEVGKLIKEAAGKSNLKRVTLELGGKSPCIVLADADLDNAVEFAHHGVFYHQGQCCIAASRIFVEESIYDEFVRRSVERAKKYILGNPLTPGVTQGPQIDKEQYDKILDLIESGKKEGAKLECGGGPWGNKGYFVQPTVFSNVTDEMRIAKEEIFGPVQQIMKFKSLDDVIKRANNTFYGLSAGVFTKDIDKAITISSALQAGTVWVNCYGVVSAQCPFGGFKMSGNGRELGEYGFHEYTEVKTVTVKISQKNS
Structure (SMILES),Potency,"activity, negative = inhibition"
CCN(CC)CCCCn1c(-c2ccccc2)nc2c(NCCOC)nc(C)nc21,"inconclusive [inhibitor, partial curve]",
CC(=O)N1CCC2(CCCN(c3ncccn3)C2)CC1,"inconclusive [inhibitor, single point]",
Cc1cc(C)n2nc(SCc3nnc(-c4ccc(F)cc4)o3)nc2n1,"inconclusive [inhibitor, single point]",
Cc1cc(C)c(S(=O)(=O)N(CC(=O)NCc2cccnc2)C2CCCCC2)c(C)c1,inactive,
CNC(=O)C(=O)NCCN1CCN(C(=O)c2ccc([N+](=O)[O-])cc2)CC1,"inconclusive [inhibitor, single point]",
COc1cc2c(cc1OC)CN(CC(=O)Nc1ccc(S(=O)(=O)N(C)C)cc1)CC2,"inconclusive [inhibitor, single point]",
CCOC(=O)CN1C(=O)N[C@@H](c2ccco2)C(C(C)=O)=C1C,,inactive: -4.31% [at 13.5 µM]
CCOC(=O)c1cc(-c2nnc(-c3ccc(Oc4ccccc4)cc3)o2)c(C)nc1C,"inconclusive [inhibitor, single point]",
COc1cc(OC)cc(C(=O)Nc2c(C)nn(-c3ccccc3)c2C)c1,inactive,
COc1cccc(C2=NN(S(C)(=O)=O)C(c3cccs3)C2)c1 (stereo not given),"inconclusive [inhibitor, single point]",
Cc1cccc(N(C(=O)c2cnc3n(c2=O)CCS3)C2CCCCC2)c1,inactive,
Cn1c(SCc2nnc(-c3ccccc3)o2)nc2ccccc21,active: 12.6 µM,
N=C(c1ccc2ccccc2c1)c1ccccc1Cc1ccccc1,,inactive: 2.58% [at 13.5 µM]
CS(=O)(=O)N(CC(=O)Nc1ccccc1C(=O)NCc1ccccc1)c1ccc2c(c1)OCCO2,"inconclusive [inhibitor, single point]",
COC(=O)c1[nH]c2ccc(C)cc2c1NC(=O)C(C)N1CCN(C2CCCCC2)CC1 (stereo not given),"inconclusive [inhibitor, single point]",
CC(=O)NC(c1ccc([N+](=O)[O-])cc1)c1c(O)ccc2ccccc12 (stereo not given),inactive,
Cc1nc(N(C)Cc2ccccc2)c2nnn(Cc3ccccc3)c2n1,"inconclusive [inhibitor, single point]",
CC12CCC(C(=O)Nc3ccccc3N3CCOCC3)(CC1=O)C2(C)C (stereo not given),"inconclusive [inhibitor, single point]",
O=C(O)C1(O)C[C@H](O)C(O)[C@@H](O)C1 (stereo not given in full),inactive,
CC(C)N=c1scc(-c2ccco2)n1/N=C/c1ccc(O)c(O)c1,inactive,
COc1ccc2cc(C(c3nnnn3C3CCCC3)N3CCc4ccccc4C3)c(=O)[nH]c2c1 (stereo not given),active: 17.8 µM,
O=C(NNc1ccc(C2CCCCC2)cc1)C(O)(c1ccccc1)c1cccs1 (stereo not given),"inconclusive [inhibitor, single point]",
Cn1c(C(=O)NCCCN2CCc3ccccc3C2)cc2c(=O)n(C)c3ccccc3c21,"inconclusive [inhibitor, single point]",

Structure (SMILES),Potency,"activity, negative = inhibition"
Cc1ccc2nc(SCC(=O)Nc3ccc4c(c3)OCCO4)[nH]c2c1,"inconclusive [inhibitor, single point]",
O=C(c1ccco1)N1CCCC(c2ccccc2)C1 (stereo not given),"inconclusive [inhibitor, single point]",
C=CCNC(=O)O/N=C/c1csc([N+](=O)[O-])c1,"inconclusive [inhibitor, single point]",
COCCNC(=O)c1cc(C(=O)CC(C)C)c[nH]1,"inconclusive [inhibitor, single point]",
CC(C)Cc1ccc(S(=O)(=O)N2CCOCC2)cc1,"inconclusive [inhibitor, partial curve]",
CCOC(=O)c1cc(-c2ccco2)nc2c1c(C)nn2-c1cccc(Cl)c1,"inconclusive [inhibitor, partial curve]",
COC(=O)c1ccc(NC(=O)CN(C)S(=O)(=O)c2ccc(OC)c(C)c2)cc1,"inconclusive [inhibitor, single point]",
COc1ccc(/C=N/NC(=O)c2ccccc2)cc1OS(=O)(=O)c1ccccc1,active: 14.1 µM,
COC(=O)C1=C(NC(=O)c2ccc(C)c(C)c2)CCS1,"inconclusive [inhibitor, single point]",
Cc1cccc2cc(CN(CC3CCCO3)S(=O)(=O)c3ccccc3)c3nnnn3c12 (stereo not given),"inconclusive [inhibitor, single point]",
CCn1c(C)cc(/C=C2/NC(=O)N(CC(=O)Nc3cccc(C)c3)C2=O)c1C,inactive,
N#CC(C(=O)c1ccc(S(=O)(=O)N2CCCCCC2)cc1)c1nc2ccccc2[nH]1 (stereo not given),"inconclusive [inhibitor, single point]",
CC(=O)c1sc(NC(=O)COc2ccc(C(C)C)c(C)c2)nc1C,inactive,
CC(=O)N1CCC(N(CCN2CCOCC2)C(=S)Nc2cccc(C)c2)CC1,"inconclusive [inhibitor, single point]",
Cc1ccc(SCc2cc(=O)[nH]c(Nc3nc(C)c4cccc(C)c4n3)n2)cc1,"inconclusive [inhibitor, full curve]",
Cn1nnnc1SCC(=O)Nc1ccc(Cl)c(S(=O)(=O)N2CCOCC2)c1,"inconclusive [inhibitor, single point]",
COc1ccc(N=C2SCC(c3ccc([N+](=O)[O-])cc3)=NN2CCO)cc1,inactive,
COc1cc(C=O)ccc1OCCCCOc1ccccc1[N+](=O)[O-],active: 5.01 µM,
NC(=O)C(=O)N/N=C/c1c(F)c(F)c(F)c(F)c1F,inactive,
COCCN1CSC(=S)N(Cc2ccco2)C1,"inconclusive [inhibitor, single point]",
CCOC(=O)c1[nH]cnc1C(=O)NC1CCCCC1,"inconclusive [inhibitor, single point]",
CCOC(=O)CSc1nc2c(sc(=S)n2Cc2ccco2)c(=O)n1-c1ccccc1,"inconclusive [inhibitor, partial curve]",
